From PubChem BioAssay AID1508642 (National Center for Advancing Translational Sciences (NCATS), 2021)
About 200 (0.47%) of roughly 43,000 compounds were called active. Not shown: some 12% with an inconclusive outcome. Calls come from the whole dose curve; as a rule, active = well fitted cell-killing curve with a large enough effect; inconclusive = small, poorly fitted or top-dose-only effect, or effect the other way; inactive = flat fitted curve, though single readings scatter. The list shows a part of the results.

experiment: Cell viability qHTS assay in S16 Pmp22-F2sN cells; conditions: S16 Pmp22-F2sN Schwann cells (luciferase reporters placed in the Pmp22 gene) viability, CellTiter-Glo, 24 h; series mostly up to 57.5 µM; activity change, negative = cytotoxicity: at the top concentration; note: nearly all actives have a fitted effect of over 65% in size
In short: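 Luminescence from CellTiter-Glo, read by CCD camera after a 15 min room-temperature incubation, served as the viability signal. Reporter Schwann cells (S16 Pmp22-F2sN) had been treated with pin-transferred compounds for 24 h at 37C.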
% is set by controls: 0 for no effect and ±100 for the full control effect; potency is the fitted concentration of half-maximal effect.

| SMILES | activity change, negative = cytotoxicity | Potency |
| --- | --- | --- |
| CC1CCCN(C(=O)Cn2c(=O)oc3cc(S(=O)(=O)N4CCCCC4)ccc32)C1 (stereo not given) | inactive: -15.5% |  |
| O=C(CSc1nnc(NC(=O)NC2CCCCC2)s1)Nc1ccccc1F | inactive: 10.3% |  |
| CCOC(=O)c1c(C)[nH]c(C)c1S(=O)(=O)NCC(=O)Nc1cccc(C(F)(F)F)c1 | inactive: -17.5% |  |
| Cc1oc2c(c1C(=O)NCc1cccc(Br)c1)C1=NCCN1C=N2 | inactive: 2.6% |  |
| Cc1ccc(CNC(=O)CCCn2c(=O)c3ccccc3n(CC(=O)C(C)(C)C)c2=O)cc1 | inactive: 9.57% |  |
| CCOC(=O)Cn1c(=O)n(CC2CCCO2)c2nc(-c3ccc(OC)cc3OC)nc(C(N)=O)c21 (stereo not given) | inactive: 9.03% |  |
| Cc1cccc(NC(=O)NCCn2c(=O)oc3ccc(C)cc32)c1 | inactive: -6.04% |  |
| Cc1ccc(C)c(N2CCN(C(=O)c3cnc4c(-c5ccccc5)c(C)nn4c3C)CC2)c1 | inactive: -0.492% |  |
| Cc1ccc(/C=C(\C#N)C(=O)Nc2cc(C)ccc2C)cc1 | inactive: 10.5% |  |
| COc1cccc(CNC(=O)CN2C(=O)N(c3cc(C)ccc3C)S(=O)(=O)c3ccccc32)c1OC | inactive: 0.731% |  |
| Cc1ccc(C)c(CN2C(=O)c3ccccc3S(=O)c3ccc(C(=O)NCc4ccccc4Cl)cc32)c1 (stereo not given) | inactive: 5.03% |  |
| COc1ccc(CNC(=O)CN(c2ccc(C)cc2)S(=O)(=O)c2c(C)n[nH]c2C)cc1 | inactive: 13% |  |
| COc1ccc2oc(=O)c(-c3csc(/C(C#N)=C/c4ccc(F)cc4)n3)cc2c1 | inactive: 8.15% |  |
| COc1ccccc1N1CCN(C(=O)C2CCN(S(=O)(=O)c3cnc[nH]3)CC2)CC1 | inactive: 14% |  |
| CCOc1ccc(NC(=O)Cn2c(=O)n(-c3ccc(C)cc3)c(=O)c3cc(OC)c(OC)cc32)cc1 | inactive: 3.02% |  |
| CCOc1ccc(NC(=O)CCS(=O)(=O)c2cc3c4c(c2)CCN4C(=O)CC3)cc1 | inactive: -17.2% |  |
| CCc1ccccc1NC(=O)CCc1c(C)nc2cc(-c3ccccc3)nn2c1C | inactive: 2.8% |  |
| CCOC(=O)c1cc2c(=O)n3ccccc3nc2n(CC(C)C)c1=NC(=O)C(C)Oc1ccccc1 (stereo not given) | inactive: -17% |  |
| CC(=O)Nc1ccc(NCc2nnc3n2CCCCC3)cc1 | inactive: 11.4% |  |
| O=C(NC1CC(=O)N(c2ccc(Cl)cc2)C1)C(=O)c1c[nH]c2ccccc12 (stereo not given) | inactive: 1.19% |  |
| Cc1ccccc1NC(=O)Cn1c(=O)n(CCCCCC(=O)NCc2ccc3c(c2)OCO3)c(=O)c2sccc21 | inactive: -5.27% |  |
| Cc1c(Cl)cccc1NC(=O)CSc1nc(=O)n(CCN2CCOCC2)c2c1CCC2 | inactive: -3.57% |  |
| CCOc1ccc(NC(=O)c2sc3nc(-c4ccc(OC)cc4)cn3c2C)cc1 | inactive: 2.22% |  |
| COc1ccc(-n2ccn(CC(=O)Nc3ccccc3C(F)(F)F)c(=O)c2=O)cc1OC | inactive: -23.5% |  |

| SMILES | activity change, negative = cytotoxicity | Potency |
| --- | --- | --- |
| COc1cc(NC(=O)C2CCCN(S(=O)(=O)c3cn(C)cn3)C2)cc(OC)c1 (stereo not given) | inactive: -1.91% |  |
| COc1ccc(-c2nsc(NC(=O)c3ccccc3Br)n2)cc1 | inactive: 3.23% |  |
| CCc1cccc2c(-c3ccccc3)nc(SCC(=O)Nc3ccc(OC)cc3)nc12 | inactive: -5.47% |  |
| N#Cc1ccccc1Cn1c(SCC(=O)NCc2ccccc2)nc2ccccc21 | inactive: 12.9% |  |
| CC(C)N(Cc1ccccc1)S(=O)(=O)c1ccc(N2CCCCS2(=O)=O)cc1 | inactive: 4.73% |  |
| Cc1cc2nn(-c3ccccc3)nc2cc1NC(=O)Cc1ccc(Cl)cc1 | inactive: 0.956% |  |
| CN(C)S(=O)(=O)c1ccc(C(=O)N(Cc2cccnc2)c2nc3c(F)cc(F)cc3s2)cc1 | inactive: 18.7% |  |
| O=C(Cn1c(=O)c2cccn2c2ccc(F)cc21)NCc1cccc(Cl)c1 | inactive: 14.2% |  |
| Cc1cn2c(=O)cc(COc3ccc(C(C)(C)C)cc3)nc2s1 | inactive: -11% |  |
| CC(C)CCn1c(SCc2c(F)cccc2Cl)nc2ccsc2c1=O | inactive: -0.873% |  |
| CC(C)NC(=O)CCSc1nc(-c2ccc3c(c2)OCO3)cc(C(F)(F)F)n1 | inactive: 7.08% |  |
| Cc1cccc(C)c1NC(=O)CSc1nc(-c2cccs2)cc(C(F)(F)F)n1 | inactive: 9.17% |  |
| CCOc1ccccc1N(CC)C(=O)c1ccc2c(=O)n3c(nc2c1)CCCCC3 | inactive: -7.83% |  |
| O=C(Nc1ccc(F)c(Cl)c1)C1CCCN(S(=O)(=O)c2cccc3nsnc23)C1 (stereo not given) | inactive: -19.8% |  |
| COc1cc(NC(=O)Cn2c(-c3ccccc3)cc(C(C)=O)c2C)cc(OC)c1 | inactive: 10.6% |  |
| COC(=O)c1ccc2c(c1)sc(=NC(=O)c1ccc(S(=O)(=O)N3CCCCC3)cc1)n2C | inactive: 6.22% |  |
| COc1ccc(-n2nc(C(=O)NCCc3ccc(Cl)cc3)c3c4ccccc4n(C)c3c2=O)cc1 | inactive: 2.56% |  |
| COc1ccc(C2c3c(-c4ccccc4)n[nH]c3C(=O)N2c2ccc(C(=O)O)cc2)c(OC)c1 (stereo not given) | inactive: 2.12% |  |
| Cc1ccc(NC(=O)Cn2c(=O)n(CCC(=O)N3CCc4ccccc4C3)c(=O)c3ccccc32)c(C)c1 | inactive: 6.63% |  |
| Cc1ccc(-c2c(CN3CCN(c4cccc(C)c4C)CC3)csc2C)cc1 | inactive: -21.2% |  |
| Cc1ccccc1NC(=O)Cn1c(=O)n(CCC(=O)N2CCc3ccccc3C2)c(=O)c2ccccc21 | inactive: 17.2% |  |
| CCC1CN(C(=O)N2CCC(C(=O)NCCCc3ccccc3)CC2)c2cc(C)ccc2O1 (stereo not given) | inactive: -26% |  |
| Cc1cccc(NC(=O)c2cccc(N3CCCS3(=O)=O)c2)c1 | inactive: 11.6% |  |
| O=C(COc1ccc(F)cc1)Nc1ccc(OCc2cc(=O)n3ccsc3n2)cc1 | inactive: 9.23% |  |

| SMILES | activity change, negative = cytotoxicity | Potency |
| --- | --- | --- |
| CCCc1cnc2c(c1SCC(=O)Nc1ccc([N+](=O)[O-])cc1)c(=O)n(C)c(=O)n2C | inactive: -14.3% |  |
| Cc1ccc(C2CC(=O)n3nc(-c4ccc(F)cc4)nc3S2)cc1 (stereo not given) | inactive: 9.06% |  |
| Cc1ccc(Cl)cc1NC(=O)c1sc2nc(C)c(C)c(C)c2c1N | inactive: 3.04% |  |
| COc1ccc(NC(=O)CCS(=O)(=O)c2cc3c(cc2C)NC(=O)CO3)cc1Cl | inactive: -2.31% |  |
| Cc1ccc(C)c(NC(=O)c2cnn(-c3ccc(F)cc3F)c2C2CCNCC2)c1 | inactive: 6.01% |  |
| CCOC(=O)c1ccc(NC(=O)CN2C(=O)C(C)(C)c3ccccc32)cc1 | inactive: 5.62% |  |
| Cc1ccc(Nc2ccc(N3CCN(C(=O)c4cccc([N+](=O)[O-])c4)CC3)nn2)cc1 | inactive: -18.6% |  |
| O=C(CSc1ncc2c(n1)-c1ccccc1N(Cc1ccc(Cl)cc1)S2(=O)=O)c1ccc(Cl)cc1 | inactive: -1.87% |  |
| CCCC12CN3CC(CCC)(CN(C1)C3c1ccc(OCc3ccccc3)cc1)C2=O (stereo not given) | inactive: 4.48% |  |
| Cc1cccc(C)c1NC(=O)CCSc1nc(-c2ccc3c(c2)OCO3)cc(C(F)(F)F)n1 | inactive: -5.51% |  |
| Cc1cc(O)c(C(c2ccccc2)N2CCC(C)CC2)c(=O)n1Cc1ccco1 (stereo not given) | inactive: -8.36% |  |
| Cc1cn2c(=O)cc(COc3ccc(NC(=O)c4ccc(C(C)(C)C)cc4)cc3)nc2s1 | inactive: 1.54% |  |
| Cc1cccc(NC(=O)C2CCCN2S(=O)(=O)c2cccc3nsnc23)c1C (stereo not given) | inactive: -0.908% |  |
| CCN(C(=O)c1sc2nc3n(c(=O)c2c1C)CCCC3)c1ccccc1F | inactive: -14.7% |  |
| Cc1ccc(CCNC(=O)c2cc(-c3ccccc3)n[nH]2)cc1 | inactive: 8.15% |  |
| Brc1cccc(-c2nnn3c2nc(NC2CCCCC2)c2ccccc23)c1 | inactive: 21.7% |  |
| C=Cc1ccc(CN2C(=O)N(c3ccc(C)c(C)c3)S(=O)(=O)c3ccccc32)cc1 | inactive: 0.533% |  |
| CCOc1ccc(NC(=O)c2cc3cc4ccc(C)cc4nc3o2)cc1 | inactive: 14.6% |  |
| COc1ccc2nc3sc(C(=O)NCCc4ccc(Cl)cc4)cc3cc2c1 | inactive: 9.4% |  |
| CCS(=O)(=O)c1ncc(Cl)c(C(=O)Nc2ccc(S(=O)(=O)N(C)c3ccccc3)cc2)n1 |  | active: 4.47 µM |
| CC1CCCCN1CCNC(=O)c1ccc(Cn2c(SCc3ccccc3)nc3cccnc32)cc1 (stereo not given) | inactive: -21.2% |  |
| Cc1ccc(C)c(NC(=O)Nc2cc3c(cc2N2CCCCC2)n(C)c(=O)n3C)c1 | inactive: -22.9% |  |
| COc1cc(OC)c(NC(=O)C2=C(C)C(=O)OC23CCN(C(C)=O)CC3)cc1Cl | inactive: -7.37% |  |
| Cc1ccc(CSc2nc3cccnc3n2Cc2ccc(C(=O)NC3CC3)cc2)cc1 | inactive: -2.03% |  |

| SMILES | activity change, negative = cytotoxicity | Potency |
| --- | --- | --- |
| Cc1ccc(-n2ncc3c(=O)n(Cc4cccc(Cl)c4)cnc32)cc1C | inactive: 2.85% |  |
| O=C(NCc1ccccc1)c1cccn1-c1nnc(N2CCCCC2)s1 | inactive: 15.7% |  |
| CCCn1c2ccccc2c2cnn(CC(=O)NCCc3ccc(S(N)(=O)=O)cc3)c(=O)c21 | inactive: 0.42% |  |
| Cn1c(NCc2cccc(Cl)c2)nc2ccccc21 | inactive: -19% |  |
| COCCNC(=O)CSc1c(C)cnc2c1c(=O)n(C)c(=O)n2C | inactive: 2.19% |  |
| Cc1ccc(NC(=O)Cn2cnc3c(oc4ccccc43)c2=O)cc1Cl | inactive: -7.92% |  |
| COc1ccc(NC(=O)CCCOc2cc(=O)n(C)c3ccccc23)c(OC)c1 | inactive: -23.2% |  |
| Cc1ccc(Cn2c(CO)cnc2SCc2ccc(F)cc2)cc1 | inactive: -15.7% |  |
| O=C(Nc1ccc(Cl)cc1Cl)c1cc(S(=O)(=O)NCc2ccc3c(c2)OCO3)ccc1F | inactive: 3.47% |  |
| CN(C)c1ccc(CNC(=O)C2CCN(c3nnc(-n4cccc4)s3)CC2)cc1 | inactive: 0.172% |  |
| CCOc1ccc(C(=O)Nc2ccc(-c3cc4ccccc4oc3=O)cc2)cc1Br | inactive: -4.28% |  |
| Cc1nn(CCC(=O)Nc2ccc(Cl)cc2)c(C)c1S(=O)(=O)N1CCCCC1 | inactive: -17% |  |
| COc1ccccc1Cn1cc(C(=O)c2ccccc2)c(=O)c2cc(OC)c(OC)cc21 | inactive: 11.1% |  |
| O=S(=O)(NCCS(=O)(=O)N1CCN(c2ccccc2)CC1)c1ccccc1 | inactive: 2.23% |  |
| COC(=O)c1ccc(NC(=O)C(C)Sc2nc(=O)cc(N)n2CCc2ccccc2)cc1 (stereo not given) | inactive: -23.2% |  |
| CN(C1CCCCC1)S(=O)(=O)c1ccc2c(c1)c(=O)c(C(=O)N1CCN(c3ccccc3)CC1)cn2C | inactive: -0.375% |  |
| O=C(O)c1ccc(NC(=O)c2ccc(Cl)c(S(=O)(=O)N3CCCCCC3)c2)cc1 | inactive: 17.8% |  |
| Cc1ccc(NC(=O)CN2C(=O)CCSc3ccccc32)c(C)c1 | inactive: 13.3% |  |
| COc1ccc(CCNC(=O)c2ccc3c(c2)nc(C)n3-c2ccc(Br)cc2)cc1OC | inactive: 10.3% |  |
| Cc1nc2c3ccccc3nc(NNC(=O)CCC(=O)O)n2n1 | inactive: 8.49% |  |
| CCOC(=O)c1ccccc1NC(=O)CSc1nc(=O)[nH]c2c1CCCC2 | inactive: 2.18% |  |
| CSc1cccc(-n2nnc(-c3nsc(NC(=O)c4cccs4)n3)c2C)c1 | inactive: -14.4% |  |
| CCc1ccc(S(=O)(=O)c2nnn3c2nc(N(C)Cc2ccccc2)c2cc(Cl)ccc23)cc1 | inactive: 10.3% |  |
